Out of some 310,000 compounds screened, about 2,200 (0.71%) showed an effect of 50% or more. The effect is printed as a negative number. This is one part of the list.

human ether-à-go-go-related gene (hERG) potassium channel, sequence (Q12809 whole entry, looked up): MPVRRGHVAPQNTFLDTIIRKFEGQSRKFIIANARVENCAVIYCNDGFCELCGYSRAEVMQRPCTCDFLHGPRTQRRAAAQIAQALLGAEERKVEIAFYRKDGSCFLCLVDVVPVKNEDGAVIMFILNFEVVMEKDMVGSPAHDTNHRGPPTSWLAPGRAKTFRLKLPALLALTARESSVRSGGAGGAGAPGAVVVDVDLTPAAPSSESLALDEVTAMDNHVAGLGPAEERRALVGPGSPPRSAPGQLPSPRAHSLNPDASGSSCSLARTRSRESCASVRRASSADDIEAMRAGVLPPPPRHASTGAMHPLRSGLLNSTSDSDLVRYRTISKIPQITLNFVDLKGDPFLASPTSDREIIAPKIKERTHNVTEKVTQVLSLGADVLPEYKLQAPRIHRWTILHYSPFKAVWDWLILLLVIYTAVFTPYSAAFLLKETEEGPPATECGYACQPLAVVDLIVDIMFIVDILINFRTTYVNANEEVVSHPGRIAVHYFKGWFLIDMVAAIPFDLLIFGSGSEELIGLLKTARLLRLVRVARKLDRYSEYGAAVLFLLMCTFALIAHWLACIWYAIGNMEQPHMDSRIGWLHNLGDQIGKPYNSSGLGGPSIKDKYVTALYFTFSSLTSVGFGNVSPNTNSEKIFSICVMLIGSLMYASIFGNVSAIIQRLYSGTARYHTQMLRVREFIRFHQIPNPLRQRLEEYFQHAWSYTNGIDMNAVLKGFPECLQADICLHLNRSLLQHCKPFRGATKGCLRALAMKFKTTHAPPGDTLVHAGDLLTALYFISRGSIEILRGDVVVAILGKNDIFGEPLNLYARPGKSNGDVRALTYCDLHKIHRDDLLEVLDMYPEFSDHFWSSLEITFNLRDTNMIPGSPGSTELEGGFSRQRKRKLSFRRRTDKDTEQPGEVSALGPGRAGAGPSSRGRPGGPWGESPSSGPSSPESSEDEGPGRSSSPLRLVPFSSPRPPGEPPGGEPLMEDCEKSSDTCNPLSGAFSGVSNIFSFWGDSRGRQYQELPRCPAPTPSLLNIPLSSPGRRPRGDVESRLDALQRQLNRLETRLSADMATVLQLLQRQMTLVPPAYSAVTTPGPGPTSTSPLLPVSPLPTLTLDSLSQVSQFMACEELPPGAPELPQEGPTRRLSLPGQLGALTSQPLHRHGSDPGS

The assay concerns the target human ether-à-go-go-related gene (hERG) potassium channel (human, UniProt Q12809). Briefly: primary screen, population patch clamp on CHO cells stably expressing hERG.
On to `CC(=O)OCCn1c(Br)nc2c1c(=O)[nH]c(=O)n2C`, for which the “hERG current change (%, negative = inhibition) at 1uM” value worked out at 6.02%.
The result for `O=C(OCC(=O)c1ccc[nH]1)c1ccc([N+](=O)[O-])cc1` reads 14.8%; that for `Cc1ccc(S(=O)(=O)/C(C#N)=C/c2c(N3CCC(C(N)=O)CC3)nc3ccccn3c2=O)cc1`, 1.76%.
Consider `CCCCC(c1nnnn1CCOC)N1CCN(CC)CC1.Cl` (stereo not shown), for which the “hERG current change (%, negative = inhibition) at 1uM” value is reported as 15.5%.
The result for `COc1ccc(N2CCN(C(=O)c3ccc4c(c3)OCO4)CC2)cc1` reads -2.77%; that for `CC(=O)N1CC(=O)Nc2ccc(F)cc2C1c1ccccc1` (stereo not shown), 6.17%; that for `Cc1cccc(-n2c(SCc3ccc([N+](=O)[O-])cc3)nnc2-c2c[nH]c3ccccc23)c1`, 15.8%.
To `COc1cc(C(=O)Nc2ccncc2)cc(OC)c1OC` belongs 3.65%; to `Cc1ccc(C2=NCCn3c2c2ccc(C(F)(F)F)cc2[n+]3[O-])cc1`, 6.16%; to `C=CCn1c(C)cc(C(=O)CSc2nnc(NCc3ccccc3)s2)c1C`, 4.17%.
To `COC(=O)c1ccc(Oc2ccc(S(=O)(=O)N3CCCCC3)cc2N)cc1` belongs 10.8%.
`CCCN1C2CCCC1CC(NC(C)=O)C2` (stereo not shown): the “hERG current change (%, negative = inhibition) at 1uM” value came out at 20.3%.
Turning to `CCOc1cc(NC(=O)c2ccco2)c(OCC)cc1NC(=O)CCC(=O)NCc1cccnc1`, the “hERG current change (%, negative = inhibition) at 1uM” value is reported as -3.74%.
The result for `O=C(NC1CCCCC1)c1ccc(-c2cccc([N+](=O)[O-])c2)o1` reads 17.3%; that for `Oc1ccc(Br)cc1Cn1nnc2ccccc21`, 13.6%; that for `O=C(CSC1=Nc2ccccc2C2CC=NN12)Nc1ccc(F)cc1Cl` (stereo not shown), 21.4%.
Consider `N=c1c2c(-c3ccccc3)c(-c3ccccc3)n(Cc3ccco3)c2ncn1Cc1ccccc1`, for which the “hERG current change (%, negative = inhibition) at 1uM” value is recorded as -4.13%.
The result for `O=C(c1cc(-c2ccc(F)cc2)nc2ccccc12)N1CCN(C2CCS(=O)(=O)C2)CC1` (stereo not shown) reads -23.8%; that for `O=C(NCCc1ccc(OC(F)F)cc1)C1CC(=O)N(c2ccc3c(c2)OCCO3)C1` (stereo not shown), -11.9%; that for `CCOC(=O)c1c(-c2cccc([N+](=O)[O-])c2)csc1NC(=O)C1CC1`, 1.32%.
To `Cc1cc(C)c(S(=O)(=O)N(CC(=O)O)C2CCCCC2)c(C)c1` belongs 9.45%.
To `COc1ccc(NC(=O)c2ccccc2NS(=O)(=O)c2ccc(C)cc2)c([N+](=O)[O-])c1` belongs 7.95%; to `COCCNc1nnc(Cc2ccc(OC)c(OC)c2)c(=O)[nH]1`, 19.7%.
As to `COCC1CCCN(Cc2cn[nH]c2-c2cc3ccccc3o2)C1` (stereo not shown), the “hERG current change (%, negative = inhibition) at 1uM” value was determined as 0.0962%.
Regarding `COCc1c(C(=O)N/N=C/c2c[nH]c3ccccc23)nnn1-c1nonc1N`, the “hERG current change (%, negative = inhibition) at 1uM” value turned out to be 14.5%.
For `Cc1cc(C)nc(NC(=O)c2cccs2)n1`, the “hERG current change (%, negative = inhibition) at 1uM” value is recorded as 6.88%.
To `Cc1ccccc1CN1CCN(C(=O)c2ccc(F)cc2)CC1.O=C(O)C(=O)O` belongs 14.6%.
The result for `COc1cc(CN2CCC(n3nccc3NC(=O)C3CCOC3)CC2)ccc1F` (stereo not shown) reads 2.37%; that for `COc1ccc(CCn2c3c(c(=O)[nH]c2=O)C(NC(=O)c2cccs2)(C(F)(F)F)C(=O)N3)cc1OC` (stereo not shown), 10.8%; that for `COc1ccc(Cn2nnnc2CN2CCC(O)(c3ccccc3F)CC2)cc1`, 7.8%.
The result for `O=C(OCC1COc2ccccc2O1)c1c(F)cccc1F` (stereo not shown) reads 11.8%.
Turning to `Cc1cc(Cl)ccc1NC(=O)CN1CCCC1`, the “hERG current change (%, negative = inhibition) at 1uM” value worked out at 13.6%.
Turning to `CCOc1ccc(NC(=O)CSc2nnc(C34CC5CC(CC(C5)C3)C4)n2C)cc1`, the “hERG current change (%, negative = inhibition) at 1uM” value was 4.85%.
As to `NC(=NC1CCCCC1)NS(=O)(=O)c1ccccc1`, the “hERG current change (%, negative = inhibition) at 1uM” value is 15.6%.
To `O=C(O)CCCC(=O)NCCc1cccc(Cl)c1` belongs 6.22%.
To `CC(NC(=O)Nc1cccc([N+](=O)[O-])c1)(C(F)(F)F)C(F)(F)F` belongs 14.2%.
Turning to `COc1ccc(C(=O)CSc2nnc(-c3ccco3)o2)cc1`, the “hERG current change (%, negative = inhibition) at 1uM” value came out at 2.29%.
Consider `O=C(Nc1ccccc1OC(F)F)c1oc2ccccc2c1COc1ccccc1`, for which the “hERG current change (%, negative = inhibition) at 1uM” value amounted to 7.45%.
In the case of `N#CCCN(Cc1ccccc1)C(=O)Nc1ccccc1`, the “hERG current change (%, negative = inhibition) at 1uM” value was 16.7%.
For `Cc1ccc(C)c(OCCSc2nnc(-c3cccnc3)n2N)c1`, the “hERG current change (%, negative = inhibition) at 1uM” value amounted to 10.7%.
To `O=C(CSC(=S)N1CCOCC1)Nc1nc(-c2ccccc2)c(-c2ccccc2)o1` belongs 4.71%.
For `CN[C@H]1CCc2cc(OC)c(OC)c(OC)c2-c2ccc(N(C)CC(OC)OC)c(=O)cc21`, the “hERG current change (%, negative = inhibition) at 1uM” value was 23.2%.
Consider `CCN(CC)CCNC(=O)c1ccc2c(c1)NC(=O)c1ccccc1S2`, for which the “hERG current change (%, negative = inhibition) at 1uM” value is reported as -1.15%.
To `CCOc1ccc(Br)cc1C(=O)N/N=C/c1c[nH]c2ccccc12` belongs 16.5%; to `O=C(CCl)NCCCCCCCCCNC(=O)CCl`, 16.7%; to `Cc1cc(/C=N/O)c(C)n1-c1ccccc1`, 14%.
To `Cc1ccccc1C(=O)N1CCN(c2nc(N3CCOCC3)nc(N3CCOCC3)n2)CC1` belongs 6.55%.
To `O=C(Nc1ccccc1C(=O)N/N=C/c1ccccc1)c1ccco1` belongs 11%; to `Cc1ccc(S(=O)(=O)NC(=O)NCc2ccc3c(c2)OCO3)cc1`, 10.2%; to `C=CCNC(=O)NS(=O)(=O)c1ccc(C)cc1`, 16.6%.
`Cc1cc(NC(=O)C(C)SCC(=O)Nc2ccc(SC(F)F)cc2)no1` (stereo not shown): the “hERG current change (%, negative = inhibition) at 1uM” value is 4.96%.
For the compound `CN(Cc1ccccc1)CC(O)COc1ccc(CNCCc2ccncc2)cc1` (stereo not shown), the “hERG current change (%, negative = inhibition) at 1uM” value came out at 14.2%.
As for `Cc1cccn2c(=O)c(/C=C(\C#N)S(=O)(=O)c3ccccc3)c(N3CCN(C)CC3)nc12`, the “hERG current change (%, negative = inhibition) at 1uM” value is reported as -14.3%.
To `Cc1ccc(-n2nc(C(=O)c3ccccc3)n3c(=O)cc(-c4ccccc4)nc23)cc1` belongs 14.7%.
As for `CN(C)C=O.N=C1C(c2nc(-c3ccc(Br)cc3)cs2)=C(O)CN1NC(=O)c1ccc([N+](=O)[O-])cc1`, the “hERG current change (%, negative = inhibition) at 1uM” value was found to be 16.1%.
With `COc1ccc(CN(C)C(=O)/C=C/c2ccc(S(=O)(=O)N3CCCCCC3)cc2)cc1`, the “hERG current change (%, negative = inhibition) at 1uM” value amounted to 2.2%.
Turning to `CC(C)c1cc(C(=O)NCCc2ccccc2)no1`, the “hERG current change (%, negative = inhibition) at 1uM” value is listed as -6.34%.
On to `COc1ccc(NC(=O)COc2ccc(C(=O)NCc3cccnc3)cc2OC)cc1`, for which the “hERG current change (%, negative = inhibition) at 1uM” value is 11%.
For the compound `CC(=O)c1cccc(NC(=O)c2ccoc2C)c1`, the “hERG current change (%, negative = inhibition) at 1uM” value was 7.42%.
As for `CCOc1ccc2[nH]c3ncccc3c(=O)c2c1`, the “hERG current change (%, negative = inhibition) at 1uM” value was 17.8%.
To `CCCOc1c(OC)cccc1C1CC(=O)Nc2cc3c(cc21)OCCO3` (stereo not shown) belongs 2.08%; to `O=S(=O)(c1ccccc1)N1N=C(c2ccccc2)CC1c1ccccc1F` (stereo not shown), 11.3%.
To `O=C(Nc1nccs1)C(NS(=O)(=O)c1ccc(Br)s1)c1ccccc1` (stereo not shown) belongs 3.84%; to `COC(=O)C(C)n1nc(C)n(-c2ccc(C)cc2)c1=O` (stereo not shown), -5.24%.
Regarding `CCCCSc1nnc([C@H](C)NC(=O)OC(C)(C)C)o1`, the “hERG current change (%, negative = inhibition) at 1uM” value was 10.9%.
To `C=CCc1cc(/C=N/NC(=O)CSc2nnc(CCCc3ccc(OC)cc3)o2)cc(OC)c1O` belongs 8.78%; to `CCc1nc(N)c(C#N)c(-c2cccn2C)c1C`, 11.5%; to `CCN1C[C@]2(COC)CC[C@H](O)[C@]34C1[C@](O)([C@@H](OC)[C@H]23)[C@@]1(O)C[C@H](OC)[C@H]2C[C@@H]4[C@@H]1[C@H]2OC`, 14.5%.
Take `COc1ccc(CC(=O)N2CCCC2)c(OC)c1`: the “hERG current change (%, negative = inhibition) at 1uM” value is 12.4%.
On to `COc1ccc(NC(=O)COC(=O)/C=C/c2ccccc2[N+](=O)[O-])cc1`, for which the “hERG current change (%, negative = inhibition) at 1uM” value is on record as -11.5%.
On to `COc1ccc(NC(=O)C(C)N2c3cccc4cccc(c34)S2(=O)=O)c(OC)c1` (stereo not shown), for which the “hERG current change (%, negative = inhibition) at 1uM” value is given as 9.42%.
To `O=C(C1=C(O)C(=O)N(CCCn2ccnc2)C1c1cccc(Br)c1)c1ccco1` (stereo not shown) belongs 12.1%; to `O=C(NCc1ccccc1)c1cc[n+](Cc2ccccc2)cc1.[Cl-]`, 10%.
To `CC(C)c1nnc(NC(=O)CCC(=O)N2CCN(Cc3ccc(F)cc3)CC2)s1` belongs 7.95%; to `N#CC1=C(N)N=C(SCc2cccc3ccccc23)C(C(N)=O)C12CCCCC2` (stereo not shown), 10.6%.
The result for `COC(=O)c1sccc1NC(=S)Nc1cc(C)ccc1OC` reads 16.5%.
As to `Cc1ccc(S(=O)(=O)N2CCC(C(=O)NC3CC3)CC2)cc1`, the “hERG current change (%, negative = inhibition) at 1uM” value was determined as 1.7%.
The result for `Cc1ccc(CNC(=O)CSc2nc(C)cc(C)c2C#N)cc1` reads 9.73%; that for `O=S(=O)(Cc1ccccc1Cl)c1ncn[nH]1`, 8.77%.
For the compound `CCC(CC)c1nnc(NC(=O)COc2ccc3c(c2)OCO3)s1`, the “hERG current change (%, negative = inhibition) at 1uM” value amounted to 9.68%.
As to `CNC(=O)COC(=O)c1cc(-c2ccccc2)nn1-c1ccccc1`, the “hERG current change (%, negative = inhibition) at 1uM” value was found to be 12.4%.
To `CCOC(=O)c1ccc(S(=O)(=O)NNC(=O)c2cccc(N(C)C)c2)cc1` belongs 23.4%.
For the compound `C=C(C)CNC(=S)/N=c1\scc(C)n1CC`, the “hERG current change (%, negative = inhibition) at 1uM” value stood at 10.5%.
Regarding `CC(C)C12CCC(C(=O)O)C(C1)C(=O)O2` (stereo not shown), the “hERG current change (%, negative = inhibition) at 1uM” value is on record as 12.6%.
In the case of `Cc1ccc(Nc2cc(C)nc(N3CCOCC3)n2)c(C)c1`, the “hERG current change (%, negative = inhibition) at 1uM” value was determined as 2.72%.
`CC(=O)C1=C(C)NC(SCC(=O)c2ccccc2)=C(C#N)C1CC(C)C` (stereo not shown): the “hERG current change (%, negative = inhibition) at 1uM” value worked out at 5.79%.
The result for `COc1cc(/C=N/NC(=O)c2sc3nc(C)cc(C)c3c2N)ccc1O` reads 2.82%; that for `CC(=O)c1c(C)[nH]c(C(=O)OCC(=O)N2CCc3ccccc3C2)c1C`, 11.1%.

For the origin of these results see publication PMC4336329 (PLoS ONE, 2015).
